Laboratory results taken from ChEMBL document CHEMBL4888484, “Replenishing the malaria drug discovery pipeline: Screening and hit evaluation of the MMV Hit Generation Library 1 (HGL1) against asexual blood stage Plasmodium falciparum ,using a nano luciferase reporter read-out” (2022).
Hit rate of the full screen: of about 150,000 compounds, about 540 (0.36%) showed an effect of 50% or more. The list shows a part of the results.

system: Plasmodium falciparum; test: Primary screen in NF54 nanoGlo assay, in single point, at 2uM, 72h; a lower Z score goes with more inhibition; assay type: functional, Erythrocyte; conditions: timepoint 72 hour

| Structure (SMILES) | % Inhibition | Z score |
| --- | --- | --- |
| Cc1ccc(/N=C(NC2CCc3ccccc32)/C(=N\c2ccc(C)cc2)NC2CCc3ccccc32)cc1 (stereo unspecified) | -27% | 3.18 |
| Cc1nc2c(c(=O)n1C)CN(C(=O)[C@@H]1Cc3ccccc3S(=O)(=O)N1)C2 | 8% | -1.47 |
| COC(=O)c1ccc(NC2CCOC(c3ccccc3)C2)nn1 (stereo unspecified) | 2% | -0.49 |
| O=S(=O)(NCc1cn2ccsc2n1)C1C[C@@H]2CC[C@H]1C2 (stereo partly specified) | 3% | -0.44 |
| O=C(OCCc1cn[nH]c1)c1c[nH]nc1-c1c(F)cccc1F | 0% | -0.02 |
| CCCCN(CCCC)C(=O)c1cc2n(n1)C[C@@H](O)CNC2=O | -12% | 1.57 |
| O=C(Nc1ccc(Oc2nnn[nH]2)cc1)c1ccc2scnc2c1 | -9% | 1.62 |
| CCc1noc(C2CCC(NCC3CCC4(CC3)OCCO4)CC2)n1 (stereo unspecified) | -5% | 0.67 |
| CCn1nnnc1-c1cccc(NC(=O)c2ccncc2Cl)c1 | -6% | 0.88 |
| CCNC(=O)N1CCC(COC)CC1 | -17% | 2.5 |
| O=C([C@@H]1CC=CCC1)N1CC(C(F)F)C1 | -16% | 2.06 |
| COc1cccc(NC(=O)Nc2cccc(-n3nc(OCC(C)C)nc3-c3ccco3)c2)c1 | -13% | 1.24 |
| N#Cc1cccc([C@@H](CC(=O)NCCN2CCCC2)c2cn(Cc3ccc(F)cc3)c3ccccc23)c1Cl | -5% | 0.63 |
| COc1ccccc1Cc1nc(-c2cc(C)n(C)n2)n(C(C)C)n1 | -3% | 0.65 |
| Cc1cc2n(n1)CCN(Cc1cc(O)n3nc(C)nc3n1)C2 | -8% | 1.16 |
| CCN1C[C@@H](c2ccccc2)CC2(CCN(Cc3ccc(C(=O)NC)o3)CC2)C1 | -3% | 0.56 |
| CCCN(C(=O)CCc1c[nH]c2ccccc12)[C@H]1CCc2ccccc2C1 | -1% | 0.08 |
| CC1Cc2ccccc2N1C(=O)C1CCCCC1C(=O)NCc1ccoc1 (stereo unspecified) | 2% | -0.17 |
| O=C(NCCCc1ncc[nH]1)c1ccc2c(c1)CCCC2 | -5% | 0.87 |
| COc1ccc(N2CCN(C(=O)c3sc4nc(-c5ccc(F)cc5)cn4c3C)CC2)cc1 | -14% | 1.9 |
| CC1(C)CN(C(=O)C23CC(c4ccccc4)(C2)C3)[C@H]2COC[C@H]21 | -5% | 0.75 |

| Structure (SMILES) | % Inhibition | Z score |
| --- | --- | --- |
| CC(C)CN(CC(N)=O)C(=O)c1cc(F)cc(Br)c1F | 2% | -0.26 |
| CCC[C@@H](C(=O)NCCCOCC1CC1)N1CCN(C(=O)OC(C)(C)C)CC1 | 3% | -0.5 |
| C=CCN1CC2(CCC1=O)CCN(Cc1cccnc1)CC2 | 10% | -1.71 |
| CCC(=O)N1CCOC[C@]2(CN(Cc3ccccc3-c3ccco3)CCO2)C1 | -1% | 0.1 |
| C[C@H](N1CCN(C(N)=O)CC1)C(F)(F)F | -9% | 1.08 |
| CCOC(=O)[C@H]1CCCN(Cc2cncc(-c3ccccc3C)c2)C1 | -21% | 1.89 |
| O=C1N[C@H]2CCN(C(=O)c3ncoc3C3CC3)C[C@@H]2CO1 | -12% | 1.52 |
| COCC(=O)N(Cc1cccc(F)c1)c1ccc(CC(=O)NCc2ccncc2)cc1 | -4% | 0.37 |
| Cn1ccc2ccc(NC(=O)N3C[C@H](O)C(C)(C)C3)cc2c1=O | -7% | 0.94 |
| OCCN1CCN(C2CCN(Cc3sccc3Cl)CC2)CC1 | -15% | 2.24 |
| Cc1cc(C)c(NC(=O)CCCS(=O)(=O)Cc2cccc3ccccc23)c(C)c1 | -8% | 1.46 |
| COc1ccc(S(=O)(=O)NCCCn2c(-c3ccc(C)cc3)nc3cccnc32)cc1Cl | -5% | 0.68 |
| CNC(=O)[C@H](NC(=O)c1cc(-c2cc(C)oc2C)nc2onc(C)c12)c1ccccc1 | 24% | -3.03 |
| CCCn1ncc(C(=O)NCc2cnc3cnccn23)c1C | -12% | 1.34 |
| CN(C(=O)NCc1nc(C2CC2)no1)C1CCC(c2ccccc2)CC1 (stereo unspecified) | 1% | -0.15 |
| Cc1cc(F)ccc1[C@H]1C(=O)NCCN1C(=O)c1csc(CC(C)C)n1 | -11% | 1.73 |
| COc1cncc(C(=O)N2CCCc3c(C)ccc(F)c32)n1 | 2% | -0.2 |
| Cc1cc(F)ccc1NS(=O)(=O)c1c(C)[nH]c(-c2nnc(C3CC3)o2)c1C | -10% | 1.26 |
| COc1ccc(S(=O)(=O)N2CCN(Cc3c[nH]c(C)n3)CC2)cc1 | 0% | 0.02 |
| O=C(c1ccc[nH]1)N1CCCN(C(=O)C2CC3CCC2C3)CC1 (stereo unspecified) | -8% | 0.69 |
| COC(=O)C(NC1CCCC(C(F)(F)F)C1)C(C)O (stereo unspecified) | -8% | 1.07 |

| Structure (SMILES) | % Inhibition | Z score |
| --- | --- | --- |
| Cc1ccc(NC(=O)N2CC[C@H](N(CCN3CCOCC3)S(C)(=O)=O)C2)cc1F | 3% | -0.48 |
| Cc1ccccc1OC1CCCCC1NC(=O)N1CCN(c2nncn2C)CC1 (stereo unspecified) | 12% | -1.52 |
| C#CCN(Cc1nc(-c2cccc(OC)c2OC)oc1C)C1CCCCC1 | -10% | 1.02 |
| COc1ccc(Br)cc1CN1C(=O)CCC1(C)C(=O)NC1CCCC(C)C1C (stereo unspecified) | -15% | 2.48 |
| c1ccc(-n2ncc3c(N4CCCN(C5CC5)CC4)ncnc32)cc1 | -1% | 0.2 |
| CC[C@H](O)CCNS(=O)(=O)c1c(F)cccc1OC(F)(F)F | 2% | -0.34 |
| CO[C@H]1CNC[C@@H]1Nc1nc(-c2ccccc2)nc2ccccc12 | 0% | -0.03 |
| CC(C)=CCC[C@@]1(C)CCC(=O)N(CCc2cc(O)nc(C)n2)C1 | -22% | 1.97 |
| CCn1ccnc1[C@H]1CCCN(C(=O)c2cc(F)cc(Cl)c2)C1 | -4% | 0.69 |
| CC(C)Oc1ccc(C2CCCC2NCC#N)cc1 (stereo unspecified) | -13% | 1.35 |
| COc1cccc2c1CC[C@]2(N)C(=O)N(C)Cc1cnccn1 | -3% | 0.65 |
| O=C(CC1(O)CCC1)N1CCCC[C@H]1c1ccco1 | -9% | 1.12 |
| CC(C)CCN(c1ncccn1)C1CCCC1 | -3% | 0.4 |
| O=C(C[C@H](c1c[nH]c2ccc(Cl)cc12)C1CCCCC1)NCc1ccccc1 | 7% | -0.9 |
| C#CCOC[C@@H](O)CN(Cc1c(C)nn(-c2ccccc2)c1Oc1cccc(C)c1)CC1CC1 | -12% | 1.9 |
| O=C(COc1ccc(-c2ccccc2)cc1)N1CC[C@H](OCC2CC2)C1 | -15% | 2.27 |
| C[C@@H](Cc1cnccn1)N(C)C(=O)c1cc(C(F)(F)F)ccc1Cl | -3% | 0.43 |
| CC(C)(C)c1nn(Cc2ccc(C#N)cc2OC(F)F)c(O)c1CCC#N | 0% | -0.03 |
| CCN(Cc1cnc(NC[C@H]2CCCO2)nc1)Cc1nccn1C | 0% | -0.05 |
| O=C1CCCN1c1ccc(CNS(=O)(=O)N2CCOCC2)cc1 | -13% | 2.51 |
| C[C@@H](Cn1cncn1)Nc1ccc(C(N)=O)cn1 | 7% | -0.87 |

| Structure (SMILES) | % Inhibition | Z score |
| --- | --- | --- |
| O=C(NC[C@H]1CCCC2(CCC2)O1)Nc1cc2cc[nH]c2cn1 | 1% | -0.09 |
| C[C@H](NCc1ccc2c(c1)CCO2)c1cc(Cl)c(N)c(Cl)c1 | 20% | -2.28 |
| O=C([C@H]1CCCO1)N1C[C@@H]2[C@@](C(F)(F)F)(CCCS2(=O)=O)C1 | -5% | 0.96 |
| O=C1CCN(C(=O)C2CCC(O)CC2)CCN(c2nc(C(F)F)nc3ccc(Cl)cc23)CCN1 (stereo unspecified) | -16% | 1.45 |
| C=CCNS(=O)(=O)c1ccc(C(=O)N2CCC3(CCC3)C2)cc1 | -11% | 1.46 |
| CC(C)(C)OC(=O)CNC(=O)[C@@H]1CCCO1 | -4% | 0.54 |
| O=C(O)c1nc(N2CCC([C@@H](O)CCc3ccccc3)CC2)ccc1Cl | 1% | -0.31 |
| CC1CCc2c(F)cccc2C1NC(=O)C1CC1C(=O)O (stereo unspecified) | 0% | -0.06 |
| O=C(Cc1ccccc1Br)NCc1nnc2n1CC[C@H](C(F)(F)F)C2 | -5% | 0.62 |
| COC(=O)c1[nH]c(C)cc1NC(=O)C1=CCCCCC1 | 37% | -0.83 |
| Cn1ncc2c(=O)[nH]c(CN(CC(N)=O)C3CCCC3)nc21 | -3% | 0.54 |
| COc1cccc(C(=O)Cn2c(=O)n(CCCS(=O)(=O)C3CCCCC3)c(=O)c3ccccc32)c1 | 1% | -0.11 |
| O=C1CO[C@@H](COc2ccc(F)cc2)CN1C1CCN(CCn2ccnc2)CC1 | -14% | 1.42 |
| c1cncc(COC2CCN(c3ncnc4[nH]ccc34)CC2)c1 | -7% | 0.87 |
| COC(=O)c1cn(CCc2nc(COc3ccc(OC)cc3)no2)cc2c(O)nnc1-2 | -2% | 0.32 |
| O=C(c1cc(=O)[nH]c2ccc(F)cc12)N1CCCCCCC1 | 16% | -1.64 |
| CCCN1C(=O)c2c(C(=O)OC)ncn2C[C@@]1(C)C(=O)NCc1ccc(F)cc1 | -1% | 0.1 |
| COCCn1cnnc1CN[C@@H](C)Cn1cnc2ccccc2c1=O | -5% | 0.63 |
| O=C(c1cc2c(s1)CCC2)N1CCN(c2nccs2)CC1 | -3% | 0.25 |
| Fc1ccccc1OCCn1cnc(-c2ccccc2)c1-c1ccncc1 | -10% | 1.8 |
